Measured values as given in paper PMC4275180.
These are yes or no findings as the source states them, for the method shown. Binding seen in cells or lysates may run through a third protein. Tags and fused reporters may be left off the sequences shown.

Protein sequences, listed by entry. Tags and fused reporters are not part of them.
UniProt P42224: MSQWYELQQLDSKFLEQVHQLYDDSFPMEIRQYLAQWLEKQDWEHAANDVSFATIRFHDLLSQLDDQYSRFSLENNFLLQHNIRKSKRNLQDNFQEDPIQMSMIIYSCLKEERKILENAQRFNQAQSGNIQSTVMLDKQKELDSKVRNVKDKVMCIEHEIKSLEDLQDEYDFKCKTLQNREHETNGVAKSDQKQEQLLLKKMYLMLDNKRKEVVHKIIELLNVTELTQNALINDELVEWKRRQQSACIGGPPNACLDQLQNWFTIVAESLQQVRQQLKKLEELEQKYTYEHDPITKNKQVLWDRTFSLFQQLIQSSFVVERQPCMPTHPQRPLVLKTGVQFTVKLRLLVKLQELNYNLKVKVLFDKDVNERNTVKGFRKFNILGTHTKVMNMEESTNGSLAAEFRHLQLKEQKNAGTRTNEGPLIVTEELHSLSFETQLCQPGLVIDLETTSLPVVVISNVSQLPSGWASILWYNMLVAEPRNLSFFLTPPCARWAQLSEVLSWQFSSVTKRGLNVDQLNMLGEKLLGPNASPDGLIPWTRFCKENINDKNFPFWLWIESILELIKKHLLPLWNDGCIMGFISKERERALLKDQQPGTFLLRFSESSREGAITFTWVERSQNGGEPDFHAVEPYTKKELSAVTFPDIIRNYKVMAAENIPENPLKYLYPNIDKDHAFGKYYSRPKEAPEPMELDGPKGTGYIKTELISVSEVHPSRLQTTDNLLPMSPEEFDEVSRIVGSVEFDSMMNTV

Molecular target: T1, FLAG-KDM3A-S264A, full length (UniProt Q9Y4C1)
T1 sequence: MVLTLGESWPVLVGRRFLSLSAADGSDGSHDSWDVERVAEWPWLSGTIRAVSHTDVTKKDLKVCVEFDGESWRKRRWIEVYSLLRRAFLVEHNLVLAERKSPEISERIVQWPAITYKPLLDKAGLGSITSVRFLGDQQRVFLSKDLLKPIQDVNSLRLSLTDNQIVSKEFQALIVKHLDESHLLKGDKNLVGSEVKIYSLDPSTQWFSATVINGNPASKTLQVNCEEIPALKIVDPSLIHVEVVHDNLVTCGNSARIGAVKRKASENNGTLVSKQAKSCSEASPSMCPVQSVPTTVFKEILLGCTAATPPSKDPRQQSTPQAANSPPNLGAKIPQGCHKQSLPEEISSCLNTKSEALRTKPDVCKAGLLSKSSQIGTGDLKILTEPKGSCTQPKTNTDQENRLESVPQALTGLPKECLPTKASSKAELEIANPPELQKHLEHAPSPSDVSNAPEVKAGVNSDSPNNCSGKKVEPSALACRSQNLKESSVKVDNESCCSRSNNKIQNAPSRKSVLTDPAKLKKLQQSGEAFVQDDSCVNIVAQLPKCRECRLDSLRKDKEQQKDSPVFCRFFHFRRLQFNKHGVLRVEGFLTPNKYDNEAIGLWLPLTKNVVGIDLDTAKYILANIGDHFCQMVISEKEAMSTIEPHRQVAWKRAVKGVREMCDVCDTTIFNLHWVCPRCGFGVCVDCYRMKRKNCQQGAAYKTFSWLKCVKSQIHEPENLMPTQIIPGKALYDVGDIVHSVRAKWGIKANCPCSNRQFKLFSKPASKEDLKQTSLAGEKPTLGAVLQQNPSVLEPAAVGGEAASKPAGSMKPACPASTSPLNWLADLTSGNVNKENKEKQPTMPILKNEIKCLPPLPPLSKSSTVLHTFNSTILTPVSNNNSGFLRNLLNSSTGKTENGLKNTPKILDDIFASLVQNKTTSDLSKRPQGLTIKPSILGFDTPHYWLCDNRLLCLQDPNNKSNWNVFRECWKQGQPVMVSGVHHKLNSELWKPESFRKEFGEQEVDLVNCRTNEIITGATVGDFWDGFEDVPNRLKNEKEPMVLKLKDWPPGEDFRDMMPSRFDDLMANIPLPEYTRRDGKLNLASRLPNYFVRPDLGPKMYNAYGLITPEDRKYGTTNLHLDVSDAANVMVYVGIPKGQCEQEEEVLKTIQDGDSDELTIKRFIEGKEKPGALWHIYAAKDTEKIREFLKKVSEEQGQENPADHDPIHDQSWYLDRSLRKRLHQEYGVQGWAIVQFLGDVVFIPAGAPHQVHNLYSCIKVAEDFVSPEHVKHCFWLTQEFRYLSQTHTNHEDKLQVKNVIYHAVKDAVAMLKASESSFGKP
Assay: co-IP; FLAG-tagged KDM3A constructs transfected into Jurkat cells, with or without heat shock (42°C); whole cell extract, IP anti-FLAG; endogenous partner (Stat1, p-MSK1) by western blot

binding: no binding
Substance: Stat1 (endogenous) (from UniProt P42224 1-750)
